Laboratory results as given in PubChem BioAssay AID1508623 (National Center for Advancing Translational Sciences (NCATS), 2021).
Out of some 48,000 compounds screened, about 450 (0.94%) were called active. The shares of active, inactive and inconclusive entries below differ from those in the screen. Calls follow the shape of the dose curve; as a rule, active = well fitted inhibition curve with a large enough effect; inconclusive = small, poorly fitted or top-dose-only effect; inactive = no such curve, though single readings can be large or run the other way. Potencies of inconclusive entries are doubtful fits and often do not repeat.

Assay: Primary qHTS for Identification of Small Molecule Inhibitors of Huntingtin Promoter Activity; also: nearly all actives have a fitted effect of over 50% in size
Conditions: HEK293 HTT promoter firefly luciferase reporter (activity 0% = vehicle and -100% = no light), 24 h; activity change, negative = inhibition: at 57.5 µM (top of the series)
Procedure, shortened: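 Firefly luciferase signal from promoter-reporter HEK293 cells was scaled between vehicle (0%) and zero RLU (-100%). Compounds were tested at final concentrations of up to 57.5 uM over 24 h at 37 degrees C. PTC124 at 50 uM final served as control inhibitor.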
Potency is read from the fitted curve at half-maximal effect; tags tell the direction and shape of the fitted curve.

SMILES	Potency	activity change, negative = inhibition
O=C(CCc1ccccc1)N1CCc2c([nH]c3ccccc23)C1c1ccc(Cl)cc1 (configuration not stated)	inconclusive: 15.8 µM [inhibitor, partial curve, poor fit]	
O=C(CSc1nc(=O)n(CCN2CCOCC2)c2c1CCC2)Nc1cccc(Cl)c1	inconclusive: 35.5 µM [inhibitor, single point]	
CC(C)c1ccc(C2c3c(oc4ccc(Cl)cc4c3=O)C(=O)N2CCCN2CCOCC2)cc1 (configuration not stated)	inconclusive: 39.8 µM [inhibitor, partial curve, poor fit]	
Cc1ccc(C2=CC(c3ccc(Cl)cc3)n3nc(-c4ccc(C)cc4)nc3N2)cc1 (configuration not stated)	inconclusive: 14.1 µM [inhibitor, partial curve]	
COc1cc(NC(=O)CN2C(=O)C(c3ccc(Cl)cc3)=NC23CCCCC3)cc(OC)c1	inconclusive: 31.6 µM [inhibitor, partial curve, poor fit]	
COc1ccc(NC(=O)CCc2nc3cccnc3n2-c2ccccc2)cc1Cl	inconclusive: 39.8 µM [inhibitor, partial curve, poor fit]	
CCC1CCc2nc3sc(C(=O)Nc4cccc(F)c4)c(N)c3cc2C1 (configuration not stated)		inactive: 8.32%
CCCCOc1ccc(C2=NC(c3cccs3)=Nc3ccc(OC)cc3N2)cc1	inconclusive: 12.6 µM [inhibitor, partial curve, poor fit]	
COc1ccc(OC)c(CNC(=O)c2c(C)oc3ncn(CC(C)C)c(=O)c23)c1	inconclusive: 31.6 µM [inhibitor, single point]	
O=C(NCC(c1cccnc1)N1CCN(c2ccccc2F)CC1)c1ccc(F)cc1 (configuration not stated)	inconclusive: 14.1 µM [inhibitor, partial curve, poor fit]	
Cc1ccccc1C(=O)Nc1ccc(S(=O)(=O)N2CCC(c3nc4ccccc4s3)CC2)cc1	inconclusive: 10 µM [inhibitor, partial curve]	
CCOC(=O)c1ccc(NC(=O)CCCc2nc(-c3cc(OC)c(OC)c(OC)c3)no2)cc1	inconclusive: 25.1 µM [inhibitor, partial curve]	
COc1ccc(-c2nc3ccccc3o2)cc1NC(=O)COc1ccc(C)c(C)c1		inactive: 22.7%
CCOc1ccc(C(=O)Nc2cccc(C(=O)OCc3cc(=O)n4cc(C)sc4n3)c2)cc1	inconclusive: 39.8 µM [inhibitor, partial curve, poor fit]	
COc1ccc(N2C(=O)CS(=O)(=O)C23C(=O)N(Cc2ccccc2F)c2ccccc23)cc1Cl (configuration not stated)	inconclusive: 22.4 µM [inhibitor, single point]	
COc1ccc(Br)cc1CNC(=O)c1cc(=O)[nH]c2ccc(S(=O)(=O)N3CCCCC3C)cc12 (configuration not stated)	inconclusive: 39.8 µM [inhibitor, single point]	
CC(=O)N1c2ccc(S(=O)(=O)N3CCC(C(=O)Nc4cccc(Cl)c4C)CC3)cc2CC1C (configuration not stated)	inconclusive: 35.5 µM [inhibitor, single point]	
Cc1cccc(Cn2cc(S(=O)(=O)c3ccccc3)c(=O)c3cc(F)c(N4CCOCC4)cc32)c1	inconclusive: 39.8 µM [inhibitor, single point]	
Cc1ccc2c(CC(=O)Nc3ccc(S(=O)(=O)N4CCCCC4C)cc3)coc2c1C (configuration not stated)	inconclusive: 22.4 µM [inhibitor, partial curve, poor fit]	

SMILES	Potency	activity change, negative = inhibition
COc1ccc(N2CCN(CCCNC(=O)c3nnc(Cc4ccc(F)cc4)o3)CC2)cc1	inconclusive: 14.1 µM [inhibitor, partial curve]	
CCOc1ccc(CCNC(=O)c2ccc(-n3c(C)cc4c3CCCC4)cc2)cc1OCC	inconclusive: 35.5 µM [inhibitor, single point]	
O=C(NCC(c1cccs1)S(=O)(=O)c1cccs1)c1ccc(F)c(F)c1 (configuration not stated)		inactive: -12.5%
O=C(Cn1cc(S(=O)(=O)Cc2cccc(Cl)c2)c2ccccc21)Nc1ccccc1C(F)(F)F		inactive: -12.5%
CCC(CC)C(=O)N1c2ccccc2C(C)(c2ccccc2)CC1(C)C (configuration not stated)	inconclusive: 31.6 µM [inhibitor, partial curve, poor fit]	
CCOc1ccc(NC(=O)Nc2nnc(N3CCCCC3C)s2)cc1 (configuration not stated)	inconclusive: 25.1 µM [inhibitor, single point]	
COc1cccc(CNC(=O)c2c(C)nn(-c3ccc(F)cc3)c2-n2cccc2)c1	inconclusive: 20 µM [inhibitor, partial curve, poor fit]	
COc1ccc(S(=O)(=O)N2CCC(c3nc4ccccc4s3)CC2)cc1OC	inconclusive: 1.41 µM [inhibitor, partial curve, poor fit]	
CCCNC(=O)c1ccc2c(c1)N=C(CCC)c1ccccc1S2	inconclusive: 22.4 µM [inhibitor, partial curve]	
CCCCC[C@H](O)C=C[C@H]1[C@H](O)CC(=O)[C@H]1CCCCCCC(=O)O		inactive: -6.03%
CCC(=O)N1CCc2cc(Br)cc(S(=O)(=O)N3CCCC(C(=O)Nc4ccc(C)c(F)c4)C3)c21 (configuration not stated)	inconclusive: 31.6 µM [inhibitor, partial curve, poor fit]	
CC(CCc1ccccc1)NC(=O)CSc1n[nH]c(-c2ccccc2)n1 (configuration not stated)	inconclusive: 28.2 µM [inhibitor, single point]	
COc1c(Cl)cc(C(=O)Nc2cc(-c3nc4ccccc4[nH]3)ccc2C)cc1Cl	inconclusive: 39.8 µM [inhibitor, single point]	
CCOc1ccccc1-c1noc(CSc2nnc(-c3ccccc3)n2-c2ccc(OC)cc2)n1	inconclusive: 35.5 µM [inhibitor, single point]	
CC(C)c1ccc(C2CC(=O)Nc3cc4c(cc32)OCCO4)cc1 (configuration not stated)	inconclusive: 28.2 µM [inhibitor, single point]	
COc1ccc(N2CCN(CCCNC(=O)c3c(C)nn(-c4ccc(F)cc4)c3-n3cccc3)CC2)cc1	inconclusive: 22.4 µM [inhibitor, partial curve, poor fit]	
CCc1ccc(NC(=O)Cn2nnc(-c3ccccc3N)n2)cc1		inactive: -14.9%
COc1ccc(S(=O)(=O)N(CC(=O)NC(C)c2ccccc2)c2ccc(C)cc2)cc1OC (configuration not stated)	inconclusive: 39.8 µM [inhibitor, single point]	
